# The other results are listed elsewhere or left out.
# System: T1, Caupolican (Caup) homeodomain DNA-binding domain
# T1 sequence: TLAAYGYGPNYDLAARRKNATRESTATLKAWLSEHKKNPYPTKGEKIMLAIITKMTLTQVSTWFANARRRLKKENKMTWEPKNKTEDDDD
# Assay: PBM E-score (8-mer, recovered from the published 9-mer minima) (E-score (dimensionless, -0.5 to 0.5)); Drosophila protein; higher = stronger relative binding preference, active = 0.31 or more
# Description: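 Protein binding microarray (PBM): in vitro transcribed/translated Caupolican (Caup) homeodomain DNA-binding domain (residues 214-303) applied at 100 nM to a universal 8-mer PBM array (Agilent AMADID 015681). The 8-mer enrichment score (E-score, range -0.5 to 0.5) was computed, and each 9-mer score is the minimum E-score of its two constituent 8-mers. The E-score is the same for a 9-mer and its reverse complement; 0.31 is the stated binding threshold.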
row,Sequence,PBM E-score
1,AACAGACA,≥ 0.293
2,AACAGCAG,inactive: 0.0469
3,AGATGCAA,inactive: 0.0564
4,CGCAGCTC,inactive: -0.176
5,ACTATGAA,inactive: 0.123
6,ATGGGCGA,inactive: -0.0775
7,AGACAAGG,inactive: 0.189
8,GCCTTTCA,inactive: -0.177
9,GGAGTCAC,inactive: 0.0172
10,GTCCGCAA,inactive: -0.0595
11,ATGGCAGG,inactive: -0.0965
12,GCGCTTAA,inactive: -0.135
13,CGACTTCC,inactive: -0.131
14,CGGCAGCA,inactive: -0.194
15,ATGGCGGG,inactive: -0.157
16,CGCTAGAA,inactive: -0.14
17,ACCTACCA,≥ 0.0213
18,CGAGAGGC,inactive: -0.183
19,AGGTCGCG,inactive: -0.108
20,GCGTCTAA,inactive: -0.0779
21,AAATACTC,inactive: 0.166

row,Sequence,PBM E-score
1,AAGGTTTC,inactive: -0.0162
2,GCCTGGAC,inactive: -0.117
3,AGTTGAGG,inactive: -0.144
4,ACTTATCC,inactive: 0.0353
5,ACCTGCTA,inactive: 0.0336
6,CGGAACCC,inactive: -0.0462
7,GAGCTTGA,inactive: -0.112
8,ATTTCACG,inactive: -0.0493
9,AGACTAAG,inactive: -0.048
10,AGAGAAGG,inactive: -0.225
11,ATTGAATC,inactive: 0.113
12,AACGTCTA,inactive: 0.0278
13,GAGCCTGA,inactive: -0.187
14,GGAAAATA,inactive: 0.0463
15,CCATAACG,inactive: -0.00078
16,AAGGAGGA,inactive: -0.11
17,ATAACTTC,inactive: 0.0508
18,CCCTTGAG,inactive: -0.169
19,GCCACTGA,inactive: -0.153
20,GAAGGTTA,inactive: -0.0583
21,CATACTGA,inactive: 0.109

row,Sequence,PBM E-score
1,ACCCTCGG,inactive: -0.148
2,CATGAGGG,inactive: -0.0921
3,GCCAGAGA,inactive: -0.122
4,GTAGAGGA,inactive: 0.00507
5,CATTTGTC,inactive: 0.189
6,ACTAACTG,≥ 0.0941
7,GACATACA,active: 0.389
8,AATCAGCG,inactive: -0.0539
9,AACGCCGT,inactive: -0.0851
10,ACACTGGA,inactive: 0.087
11,GCTGTATA,inactive: 0.194
12,CGACCTGA,≥ 0.0488
13,GATCCCAA,inactive: -0.0943
14,GCATGGGA,inactive: -0.103
15,AAATTCTC,inactive: -0.0223
16,AAATACCT,inactive: 0.028
17,CCTATTGC,inactive: -0.0285
18,AGATAACA,inactive: 0.221
19,GTGCTCTA,inactive: -0.0573
20,CATAGAAC,inactive: -0.0514

# From the supplement of paper PMC3724861
